± gives the standard deviation of the averaged measurements. The list shows a part of the results.

In this assay the test system is PfAP2-G AP2 domain (GST-tagged). Briefly: gcPBM binding intensity (ln(normalized median fluorescence intensity)); higher = stronger DNA binding. Summed up:
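The binding buffer was 1× PBS containing 1% milk, 0.2 mg/ml BSA, 0.5% salmon testes DNA and 0.03% Triton X-100. In it, GST-tagged P. falciparum DNA-binding domains expressed in E. coli were applied for 1 h to an Agilent 4 × 180k array of primer-extended double-stranded 36-bp intergenic genomic probes plus negative controls. Binding intensity, read with Alexa488 anti-GST antibody and a 488 nm scan, is the highest Masliner-normalised natural-log median intensity across replicate spots of either probe orientation.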
Turning to “TCTTTAAATCGAGTGTTAAATAATATAATATAAAAA [CACACA_negctrl_site1507]”, the “gcPBM binding intensity (ln)” value was 9.93 ± 0.2.

For “AACCAATATGAGTATACACACATAAATATAAATATA [CACACA_site5968]”, the “gcPBM binding intensity (ln)” value is 10.1 ± 0.26.

For “AAAAAAAAAAAAGATACACACAAAAATGGATATATA [CACACA_site7069]”, the “gcPBM binding intensity (ln)” value turned out to be 9.95 ± 0.11.

Turning to “TTAATATAATAAAATCGTACAAATAAAATATAAAAT [XGTACX_site8730]”, the “gcPBM binding intensity (ln)” value was determined as 11.1 ± 0.65.

In the case of “AAGTTTATTTGTTGCACACATATAAGTAGAGAAAAT [CACACA_site3027]”, the “gcPBM binding intensity (ln)” value came out at 10.3 ± 0.26.

“TTTTCAAAATAATATTATATCAAATGCTAAAAAGAA [TGCATGCA_negctrl_site588]”: the “gcPBM binding intensity (ln)” value was found to be 9.89 ± 0.18.

“TAAGAATAATGACATAGTACAATTTAATAGATCTAA [XGTACX_site3670]”: the “gcPBM binding intensity (ln)” value was found to be 10.6 ± 0.35.

Take “ATTAAATACTTCGATTGTACAATTTTTTTTTTTTTT [XGTACX_site832]”: the “gcPBM binding intensity (ln)” value is 11 ± 0.64.

Consider “TACAGATATTATTGCACACATATAAAATACCCCCAA [CACACA_site6014]”, for which the “gcPBM binding intensity (ln)” value worked out at 10.9 ± 0.5.

Turning to “TTACGTTATATACATACACACCCACGCACAAAAAAA [CACACA_site6537]”, the “gcPBM binding intensity (ln)” value turned out to be 10.6 ± 0.51.

In the case of “TAATATTTATGTTAATGTACAAAAAAACAAAACAAA [XGTACX_site301]”, the “gcPBM binding intensity (ln)” value worked out at 10.8 ± 0.36.

For the sequence “GTATGTATATATGTATGTACTTATGTATCATTATTA [XGTACX_site2438]”, the “gcPBM binding intensity (ln)” value is 11.2 ± 0.83.

Take “ATAATATATATTAAACGTACATAAAATAATTATGGA [XGTACX_site1670]”: the “gcPBM binding intensity (ln)” value was found to be 11.4 ± 0.7.

In the case of “ATAAAACAATAAAATTGTACATAAATTGATTATACT [XGTACX_site6723]”, the “gcPBM binding intensity (ln)” value was 10.9 ± 0.49.

Take “GAATAAATAGACGAGTGTACTTTTTTTTAAAAAAAA [XGTACX_site7880]”: the “gcPBM binding intensity (ln)” value was 11.6 ± 0.91.

Consider “ACGTTTACGTTATTATGTACGTAATATATCATACCT [XGTACX_site5006]”, for which the “gcPBM binding intensity (ln)” value is 11.5 ± 1.1.

In the case of “GAAAAAAAAAAAAAAAAAAAAAGGAAAAAAGTGAAA [CACACA_negctrl_site996]”, the “gcPBM binding intensity (ln)” value was 9.52 ± 0.11.

With “GTATATATTTAAACACGTACACAAAACCCAAAAAAT [XGTACX_site8110]”, the “gcPBM binding intensity (ln)” value turned out to be 11.8 ± 0.96.

As to “ATACACTCACTCACACGTACAGACAACGGACGATCA [XGTACX_site1097]”, the “gcPBM binding intensity (ln)” value was determined as 11.5 ± 0.88.

Consider “AATTAAATTAGAAGCACACACATATTTATATTTATA [CACACA_site7552]”, for which the “gcPBM binding intensity (ln)” value worked out at 9.995 ± 0.049.

In the case of “TTTCATTTAGCTTTTACACACTATATATCATTGATT [CACACA_site6158]”, the “gcPBM binding intensity (ln)” value came to 9.93 ± 0.15.

Regarding “AATAATAACACCGTGGATACACAATAACAAAGAACT [CACACA_negctrl_site532]”, the “gcPBM binding intensity (ln)” value worked out at 10.3 ± 0.11.

With “AAATATTTTTTTTCTACACACATACAAATATATATT [CACACA_site5325]”, the “gcPBM binding intensity (ln)” value was determined as 10.26 ± 0.085.

Consider “TTGCAACTCTTCAATCGTACACATTATTTATTATAT [XGTACX_site1377]”, for which the “gcPBM binding intensity (ln)” value was 11.3 ± 0.64.

For “TACATATACATATACACACACACACCCAAATAAATA [CACACA_site1344]”, the “gcPBM binding intensity (ln)” value stood at 10.3 ± 0.35.

“TGAGAGTTCTCATATGCACACAAAAAACTTTCATTT [CACACA_site7898]”: the “gcPBM binding intensity (ln)” value was determined as 10.035 ± 0.007.

Turning to “TTTTTTTTAAAAAACACACACCTAAACAAGATATTT [CACACA_site6541]”, the “gcPBM binding intensity (ln)” value worked out at 10.2 ± 0.21.

As for “CATATTTTTAAATACACACACATAAAAAAAAAAAAA [CACACA_site1095]”, the “gcPBM binding intensity (ln)” value amounted to 10.1 ± 0.42.

As to “AAATAAAAAAGTAGTACACACTTCACGATATTTTTT [CACACA_site6015]”, the “gcPBM binding intensity (ln)” value amounted to 11.6 ± 1.

Consider “AAAAATATAAACTGCACACACACAAAAAAAGAAAAA [CACACA_site648]”, for which the “gcPBM binding intensity (ln)” value stood at 10.1 ± 0.16.

Turning to TTATTATAATCATTAGTGCATATATTATTTTTATAT, the “gcPBM binding intensity (ln)” value was 9.85 ± 0.042.

Turning to “TATATACATATATGTACACACATTACAGATGTACAT [CACACA_site966]”, the “gcPBM binding intensity (ln)” value came to 11.7 ± 0.93.

Consider “TATATTTACAATAAAACGTTATTTTTTGTTATTTTC [CACACA_negctrl_site612]”, for which the “gcPBM binding intensity (ln)” value was 9.55 ± 0.15.

Turning to “AATCTAATATAATGCACACATAAAAAAAAAATCAAA [CACACA_site2714]”, the “gcPBM binding intensity (ln)” value was 10.2 ± 0.3.

As for “ATTTCGAATATTAAGTGTACAATATAAATATATAAA [XGTACX_site6674]”, the “gcPBM binding intensity (ln)” value was found to be 11.3 ± 0.75.

With “TTATATGAATTTTAGATTTATAATACAAGAATATTC [CACACA_negctrl_site70]”, the “gcPBM binding intensity (ln)” value was 9.665 ± 0.007.

For the sequence “ATAATTTGTGGACACACACACACACCGACATATATA [CACACA_site8718]”, the “gcPBM binding intensity (ln)” value stood at 11.5 ± 1.

Take “TTATTCACTTCTTTTTAAAAAAAAAAAAAAAAAAAA [CACACA_negctrl_site223]”: the “gcPBM binding intensity (ln)” value amounted to 9.8 ± 0.48.

For “TTGTTAATGGTACGAACACACATATAAAGATGCATA [CACACA_site2044]”, the “gcPBM binding intensity (ln)” value was 10.5 ± 0.34.

Consider “AAAAAAAAAAAAAAAAGTACAAATAAAAAAAAAATA [XGTACX_site4814]”, for which the “gcPBM binding intensity (ln)” value was 11.4 ± 0.85.

Take “ATTAAATACATTAACACACACACAAATATGTACATA [CACACA_site7372]”: the “gcPBM binding intensity (ln)” value came to 11.5 ± 0.83.

“ATATTATATAATATACGTACATATATTATGCATAAA [XGTACX_site7895]”: the “gcPBM binding intensity (ln)” value amounted to 11.5 ± 0.98.

Turning to “TACGTAGCCACACTAACACACACAAATATGCACAAT [CACACA_site8942]”, the “gcPBM binding intensity (ln)” value was found to be 10.3 ± 0.24.

For the sequence “TTACTTAAGAAACACACACACAAAAAAAAAAAAAAA [CACACA_site946]”, the “gcPBM binding intensity (ln)” value stood at 9.91 ± 0.54.

With “ATCATAATCATAAAAAGTACAAACGATAAAATAAAT [XGTACX_site3832]”, the “gcPBM binding intensity (ln)” value was found to be 11.2 ± 0.82.

“TATGTAAAAAATTTAACACACACATATATATATATA [CACACA_site8829]”: the “gcPBM binding intensity (ln)” value was 10.1 ± 0.53.

With “TGTTATTTTAAAAAAAAAATTATTAACTTAAAAAAA [CACACA_negctrl_site1641]”, the “gcPBM binding intensity (ln)” value came to 9.62 ± 0.071.

In the case of “TTTTTTTCTGTGAGTGCATGTAATAAAATAAATTTA [TGCATGCA_site276]”, the “gcPBM binding intensity (ln)” value amounted to 10.2 ± 0.26.

“CAACATATATTAATATGTACATATATATAGATATAT [XGTACX_site4107]”: the “gcPBM binding intensity (ln)” value is 11.2 ± 0.58.

For “TATTTATAATAGTGTACACAATTATAAACTGAATAT [CACACA_site6041]”, the “gcPBM binding intensity (ln)” value came to 11.7 ± 0.89.

With “TATTATTGTCTTTCAAAAAAAAAAAAAAAAAAAAAA [CACACA_negctrl_site1242]”, the “gcPBM binding intensity (ln)” value was found to be 9.76 ± 0.7.

For “TATTATTCATAATTTATCTTTTAAATTAAATCACAA [GTGCAC_negctrl_site288]”, the “gcPBM binding intensity (ln)” value was determined as 9.57 ± 0.085.

Regarding “CATACTCACCAACACACACACACACCCATATAGAAT [CACACA_site592]”, the “gcPBM binding intensity (ln)” value worked out at 10.3 ± 0.36.

For the sequence “TATATATATACTTAATGTACATATATATATATATAT [XGTACX_site3102]”, the “gcPBM binding intensity (ln)” value was determined as 11.1 ± 0.79.

On to “AACAAACACAGACACACACACACACCCAAATGATTA [CACACA_site2431]”, for which the “gcPBM binding intensity (ln)” value is 10.4 ± 0.36.

For “ATAATATAACACAAATGTACAAAAAATAAATAAATA [XGTACX_site385]”, the “gcPBM binding intensity (ln)” value was determined as 10.7 ± 0.4.

The values above are taken from the supplement of paper PMC11417369.
